The source gives no read counts; variants with many changes may rest on few reads.
B1: OR4K15 (parent)
chain: GUUAACGGUCAUAGGCCAUGGAAACUAGGAGCACCAUUUCGCUGCCAGUGAAGAAAUGAACAAAGAAAAUCUGGGCCAGGCAGGCAUCAAAAGAAAUAGUCUUGCGCUCAACCAGAAAGUCUGUAAUCAUUUUAAGGGUA

Variants of: B1
Experiment: self-cleavage, relative activity (ratio to wild type); higher = more cleavage; in vitro, sequencing; the parent is a self-cleaving ribozyme

| Variant | self-cleavage |
| --- | --- |
| GUUAACGGUCGUAGGCCAUGGAAACUAGGUGCACCAUUUCGCAGCCAGUGAAGAAAUGAACAAAGAAAAUCUGGGCCAGGCAGGCUUCAAAAGAAAUAGUCUUGCGCUCAACCAGAAAGUCUGUAAUCAUUUUAAGGGUA | 1.94 |
| GUUAACGGUCGUAGGCCAUGGAAACUAGGGGCACCAUUUCGCUGCCAGUGAAGAAAUGAACAAAGAAAAUCUGGGCCAGGCAGGCAUCAAAAGAAAUAGUCUUGCGCUCAACCAGAGAGUCUGUAAUCAUUUUAAGGGUA | 0.6 |
| GUUAACGGUCGUAGGCCAUGGAAACUAGGAGCACCUUUUCGUUGCCAGUGAAGAAAUGAACAAAGAAAAUCUGGGCCAGGCAGGUAUCAAAAGAAAUAGUCUUGCGCUCAACCAGGAAGUCUGUAAUCAUUUUAAGGGUA | 0.32 |
| GUUAACGGUCGUAGGCCAUGGAAACUAGGAGCGCCAUUUCGCUGCCAGUGAAGAAAUGAACAAAGAAAAUCUGGGCCAGGCAGGCAUCAAAAGAAAUAGUCUUGCGCUCAACCAGAAAGUCUGUAAACAUUUUAAGGGUA | 1.3 |
| GUUAACGGUCGUAGGCCAUGGAAACUAGGAGCACCAUUUCGCUGCCAGUGCAGAAAUGAACAAAGAAAAUCUGGGCCAGGCAGGCAUCAAAAGAAAUAGUCUUGCGCUCAACCAGAAAGUCUGUAAUCAUUUUAAGGGCA | 0.52 |
| GUUAACGGUCGUAGGCCAUGGAAACUAGGAGCACCAUUUCGCUGCCAGUGAGGAAAUGAACAAAGAAAAUCUGGGCCAGGCAGGCAUCAAAAGAAGUAGUCUUGCGCUCAACCAGAAAGUCUGUAAUCAUUUUAAGGGUA | 1.26 |
| GUUAACGGUCGUAGGCCAUGGAAGCUAGGAGCACCAUUUCGCUGCCAGUGAAGAAAUGAACAAAGAAAAUCUGGGCCUGGCAGGCGUCAAAAGAAAUAGUCUUGCGCUCAACCAGAAAGUCUGUAAUCAUUUUAAGGGUA | 0.29 |
| GUUAACGGUCGUAGGCCAUGGAAACUAGGAGCGCCCUUUCGCUGCCAGUGAAGAAAUGAACAAAGAAAAUCUGGGCCAGGCAGGCAUCAAAAGAAAUAGUCUUGCGCUCAACCAGAAAGUCUGUAAUCAUUUUGAGGGUA | 1.32 |
| GUUAACGGUCGUAGGCCAUGGAAACUAGGAGCACCAUUUCGCUGCCAGUGAAGGAAUGAACAAAGAAAAUCUGGGCCAGGCAGGCAUCAAAAGAAAUAGUCUUGCGCUCAACCAGAAAGUCUGUAACCAUUUCAAGGGUA | 0.52 |
| GUUAACGGUCGUAGGCCAUGGAAACUAGGAGCACCAUUUCGCUGCCCGUGAAGAAAUGAACAAAGAAAAUCUGGGCCAGGCAGGCAUCAAAAGAAAUAGUCUUGCGCUCAACCAGAAAGUCUGUAAUCAUUCUAAGGGUA | 0.23 |
| GUUAACGGUCGUAGGCCAUGGAAACUAGGAGCACCAUUUCGCUGCCGGUGAAGAAAUGAACAAUGAAAAUCUGGGCCAGGCAGGCAUCAAAAGAAAUAGUCUUGCGCUCAACCAGAAAGUCUGUAAUCAUUUUAAGGGUA | 1.18 |
| GUUAACGGUCGUAGGCCAUGGAAACUAGGAGCACCAUUUCGCUGCCAGUGAAGGAAUGAACAAAGAAAAUCUGGGCCAGGCAGGCAUCAAAAGAAAUAGUCUUGCGCUCAACCAGGAAGUCUGUAAUCAUUUUAAGGGUA | 0.4 |
| GUUAACGGUCGUAGGCCAUGGAAACUAGGAGCACCAUUUCGCUGCCAGUGAAGGAAUGAACAAAGAAAAUCAGGGCCAGGCAGGCAUCAAAAGAAAUAGUCUUGCGCUCAACCAGAAAGUCUGUAACCAUUUUAAGGGUA | 0.12 |
| GUUAACGGUCGUAGGCCAUGGAUACUAGGAGCACCAUUUCGCUGCCAGUGAAGAAAUGAACAAAGAAAAUCUGGGCCAGGCAGGCAUCAAAAGAAAUAGUCUUGCGCUCAACCAGAAAGUCUGUAAUCAUCCUAAGGGUA | 1 |
| GUUAACGGUCGUAGGCCAUGGAAACUAGGAGCACCAUUUCGCUGCCGGUGAAGAAAUGAACAAAGAAAAUCUGGGCCAGGCAGGCAUCAAAAGAAAUAGUCUUGCGCUCAACCAGAGAGUCUGUACUCAUUUUAAGGGUA | 0.63 |
| GUUAACGGUCGUAGGCCAUGGAAACUAGGAGCGCCAUUUCGCUGCCAGUGAAGAAAUGGACAAAGAAAAUCUGGGCCAGGCAGGCAUCAAAAGAAAUAGUCUUGCCCUCAACCAGAGAGUCUGUAAUCAUUUUAAGGGUA | 0.03 |
| GUUAACGGUCGUAGGCCAUGGAAACUAGGGGCACCAUUCCGCUGCCAGUGAAGAAAUGAACAAAGAAAAUCUGGGCCAGGCAGGCAUCAAAAGAAAUAGUCUUGCGCUCAACCAGAAAGUCUGUAAUCAUUUUAAGGGUA | 0.43 |
| GUUAACGGUCGUAGGCCAUGGAAACUAGGAGCACCAUUUCGCUGCCAGUGAUGAAAUGAACAAAGAAAAUCUGGGCCAGGCAGGCAUCAAAAGAAAUAGUCUUGCGCUCAACCUGAAAGUCUGUAAUCAUUUUAAGGGUA | 0.04 |
| GUUAACGGUCGUAGGCCAUGGAAACUAGGAGCACCAUUUCGCUGCCAGUGAAGAGAUGAACAAGGAAAAUCUGGGCCAGGCAGGCAUCAAAAGAAAUAGUCUUGCGCUCAACCAGAAAGUCUGUAAUCAUUUUAAGGGUA | 1.54 |
| GUUAACGGUCGUAGGCCAUGGAAGCUAGGAGCACCAUUUCGCUGCCAGUGAAGAAAUGAACAAAGAAAAUCUGGGCCAGGCAGGCAUCAAAAGAAACUGUCUUGCGCUCAACCAGAAGGUCUGUAAUCAUUUUAAGGGUA | 0.35 |

Reference: the RNAGym collection of RNA variant scans (doi:10.7554/elife.90254)
